# Experimental data published in the supplement of paper PMC11880418.
# Where a name gives a salt, the structure may show the parent alone. The list shows a part of the results. The data scatter; read single values as rough. Residues, ends and D or L forms follow the SMILES beside them.
# Key:
# Test in all cases: ALDHbr (CSC) cell proportion score relative to DMSO vehicle (ratio to DMSO); breast (SUM159) / gastric (MKN45) / pancreatic (PANC1) / colon cancer lines; ALDHbr cells have high ALDH activity and are rich in cancer stem cells (CSC); higher = more CSC (ALDHbr) cells remaining
# Conditions in all cases: 10 µM; 72 h
# MKN45 = test system: MKN45
# PANC1 = test system: PANC1
# SUM159 = test system: SUM159
# T84 = test system: T84
# 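Note: High-content imaging of ALDEFLUOR-stained cells with Hoechst-labelled nuclei in 384-well plates, triplicate wells, scored as Z-score against 0.1% DMSO vehicle, negative meaning fewer ALDHbr cells.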
SMILES,ALDHbr (MKN45),ALDHbr (PANC1),ALDHbr (SUM159),ALDHbr (T84)
CN1CCCCC1CCN1c2ccccc2Sc2ccc([S+](C)[O-])cc21 (stereo unspecified) [Mesoridazine besylate],1.08,0.756,0.623,0.818
CC/C(=C(\c1ccccc1)c1ccc(OCCN(C)C)cc1)c1ccccc1 [Tamoxifen citrate],0.665,0.822,0.46,0.193
CO/N=C(\C(=O)N[C@@H]1C(=O)N2C(C(=O)O)=C(C[N+]3(C)CCCC3)CS[C@H]12)c1csc(N)n1 [Cefepime hydrochloride],0.985,0.872,0.925,0.995
CN(Cc1ccc(C(C)(C)C)cc1)Cc1cccc2ccccc12 [Butenafine Hydrochloride],0.805,1.08,1.08,0.95
"CC[C@H](C)[C@H](N)C1=N[C@H](C(=O)N[C@@H](CC(C)C)C(=O)N[C@H](CCC(=O)O)C(=O)N[C@H](C(=O)N[C@H]2CCCCNC(=O)[C@H](CC(N)=O)NC(=O)[C@@H](CC(=O)O)NC(=O)[C@H](Cc3cnc[nH]3)NC(=O)[C@@H](Cc3ccccc3)NC(=O)[C@H]([C@@H](C)CC)NC(=O)[C@@H](CCCN)NC2=O)[C@@H](C)CC)CS1 [Bacitracin] (HELM PEPTIDE1{[CC[C@H](C)[C@H](N)C1=N[C@H](C(=O)[*:2])CS1].L.[dE].I.K.[NCCC[C@@H](N[*:1])C(=O)[*:2]].I.[dF].H.[dD].N}$PEPTIDE1,PEPTIDE1,5:R3-11:R2$$$V2.0)",0.731,0.856,1.02,0.932
CCCc1cc(C(N)=S)ccn1 [Prothionamide],0.981,0.94,0.988,0.731
Cc1ncc([N+](=O)[O-])n1CC(C)O (stereo unspecified) [Secnidazole],1.11,0.86,1.03,1.04
Cc1cc(CC(=O)O)n(C)c1C(=O)c1ccc(Cl)cc1 [Zomepirac sodium salt],1.01,0.948,1.06,0.936
CN1C(=O)CC(c2ccccc2)C1=O (stereo unspecified) [Phensuximide],1.12,1.06,1.11,1.09
CN(C)CCCC1(c2ccc(F)cc2)OCc2cc(C#N)ccc21 (stereo unspecified) [Citalopram Hydrobromide],1.04,0.884,0.896,0.937
C1N2CN3CN1CN(C2)C3 [Methenamine],1.08,0.929,0.958,1.07
CCn1cc(C(=O)O)c(=O)c2cnc(N3CCCC3)nc21 [Piromidic acid],0.922,0.918,1.07,1.04
Nc1ccc(S(=O)(=O)c2ccc(N)cc2)cc1 [Dapsone],0.804,0.894,1.23,0.858
CC(C)(Oc1ccc(CCNC(=O)c2ccc(Cl)cc2)cc1)C(=O)O [Bezafibrate],0.989,0.963,0.843,1
C[C@]12C=CC(=O)C=C1CC[C@@H]1[C@@H]2C(=O)C[C@@]2(C)[C@H]1CC[C@]2(O)C(=O)CO [Prednisone],1.04,0.809,0.924,1.07
CN1CC2c3ccccc3Oc3ccc(Cl)cc3C2C1 (stereo unspecified) [Asenapine maleate],1.02,0.826,0.969,0.999
C#C[C@]1(O)CC[C@H]2[C@@H]3CCC4=Cc5oncc5C[C@]4(C)[C@H]3CC[C@@]21C [Danazol],0.872,0.871,1.02,0.852
COc1ccc2cc([C@H](C)C(=O)O)ccc2c1 [Naproxen],1.03,0.946,1.01,1.08
CC1(C)O[C@@H]2C[C@H]3[C@@H]4C[C@H](F)C5=CC(=O)CC[C@]5(C)[C@H]4[C@@H](O)C[C@]3(C)[C@]2(C(=O)CO)O1 [Flurandrenolide],0.923,0.609,1.36,1.04
Nc1ccc(S(=O)(=O)Nc2nccs2)cc1 [Sulfathiazole],0.898,0.805,1.02,0.974
C=CCOc1ccccc1OCC(O)CNC(C)C (stereo unspecified) [Oxprenolol hydrochloride],0.928,0.976,1.17,1.03
Nc1nc2c(ncn2COC(CO)CO)c(=O)[nH]1 [Ganciclovir],1.03,0.948,1.04,1.02
NC(=O)OCC(O)COc1ccc(Cl)cc1 (stereo unspecified) [Chlorphensin carbamate],1.31,0.924,1.04,1.02
N=c1nc(N2CCCCC2)cc(N)n1O [Minoxidil],1.06,0.999,0.942,0.748
